This assay addresses Sso2 (yeast two-hybrid construct) (yeast) (UniProt P39926). As to the kind of experiment: two-hybrid; yeast 2-hybrid assay, pair-wise testing of all eight yeast exocyst subunits with Sso2; mapping with Sec3 fragments.

Chains of the proteins cited; added tags and fusions are not shown. Lines headed by an entry give the natural chain unless they say otherwise; changes in a name come on top.
UniProt P39926: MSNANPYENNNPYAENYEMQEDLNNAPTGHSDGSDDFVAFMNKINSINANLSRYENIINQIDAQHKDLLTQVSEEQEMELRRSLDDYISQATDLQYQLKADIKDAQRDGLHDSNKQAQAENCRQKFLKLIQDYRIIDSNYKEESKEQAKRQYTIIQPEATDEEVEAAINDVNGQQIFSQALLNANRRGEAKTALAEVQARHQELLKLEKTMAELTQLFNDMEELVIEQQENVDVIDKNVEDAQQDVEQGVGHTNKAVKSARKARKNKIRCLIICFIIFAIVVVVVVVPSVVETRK
UniProt P33332: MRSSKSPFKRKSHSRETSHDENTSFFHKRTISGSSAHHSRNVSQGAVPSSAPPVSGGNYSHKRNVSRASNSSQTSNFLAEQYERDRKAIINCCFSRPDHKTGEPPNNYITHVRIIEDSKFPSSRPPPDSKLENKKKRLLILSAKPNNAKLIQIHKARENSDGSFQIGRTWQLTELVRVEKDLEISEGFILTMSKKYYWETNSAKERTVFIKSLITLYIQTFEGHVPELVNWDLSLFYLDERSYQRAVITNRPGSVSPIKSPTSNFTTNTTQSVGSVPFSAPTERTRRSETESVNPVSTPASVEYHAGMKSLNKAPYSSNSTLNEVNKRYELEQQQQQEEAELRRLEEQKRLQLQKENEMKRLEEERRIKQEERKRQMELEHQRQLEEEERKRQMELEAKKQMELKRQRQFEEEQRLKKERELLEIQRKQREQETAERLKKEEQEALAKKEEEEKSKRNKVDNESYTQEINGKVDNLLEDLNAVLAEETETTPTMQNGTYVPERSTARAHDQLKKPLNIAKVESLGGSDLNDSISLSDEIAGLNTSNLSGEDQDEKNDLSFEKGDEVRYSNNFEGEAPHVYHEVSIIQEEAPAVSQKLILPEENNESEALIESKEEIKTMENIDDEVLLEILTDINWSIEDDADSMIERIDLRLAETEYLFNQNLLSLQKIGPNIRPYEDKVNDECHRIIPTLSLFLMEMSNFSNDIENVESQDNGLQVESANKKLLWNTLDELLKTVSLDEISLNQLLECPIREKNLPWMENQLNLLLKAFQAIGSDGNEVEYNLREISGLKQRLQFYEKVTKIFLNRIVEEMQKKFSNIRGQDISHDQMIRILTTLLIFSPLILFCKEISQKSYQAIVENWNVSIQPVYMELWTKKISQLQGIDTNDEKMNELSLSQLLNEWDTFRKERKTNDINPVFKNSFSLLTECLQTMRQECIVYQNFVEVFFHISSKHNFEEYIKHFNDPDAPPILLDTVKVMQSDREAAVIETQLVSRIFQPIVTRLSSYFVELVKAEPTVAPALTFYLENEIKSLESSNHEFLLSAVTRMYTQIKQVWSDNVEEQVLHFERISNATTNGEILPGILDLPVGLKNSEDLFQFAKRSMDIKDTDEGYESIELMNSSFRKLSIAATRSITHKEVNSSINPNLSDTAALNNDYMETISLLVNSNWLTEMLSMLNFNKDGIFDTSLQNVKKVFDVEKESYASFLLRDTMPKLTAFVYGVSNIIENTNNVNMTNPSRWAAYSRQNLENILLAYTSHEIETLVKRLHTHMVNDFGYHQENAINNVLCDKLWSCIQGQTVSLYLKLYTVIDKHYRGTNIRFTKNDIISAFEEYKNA

Results are given in words; binding and its absence hold for the method and conditions named. Some binding calls cover weakened binding; strength is not graded here.

With “Sec3 (yeast two-hybrid construct) (from UniProt P33332 1-1336)”, the binding entry was “binds”. As to “Sec3 amino acid 1-320 (yeast two-hybrid construct) (from UniProt P33332 1-320) (domain or fragment)”, the binding result is recorded as “binds”.

The record behind these values is publication PMC5267525, “Sec3 promotes the initial binary t-SNARE complex assembly and membrane fusion” (Nature Communications, 2017).
